Measurements as given in publication PMC4336329 (PLoS ONE, 2015).
Among all 310,000 compounds or so, about 14,000 (4.5%) showed an effect of 50% or more. Effects have a minus sign here. This is one part of the list.

molecular target: human ether-à-go-go-related gene (hERG) potassium channel (human, UniProt Q12809); assay: primary screen, population patch clamp on CHO cells stably expressing hERG
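Further: peak tail current of the secondary pulse compared with the same well before compound.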

Chain of human ether-à-go-go-related gene (hERG) potassium channel (Q12809 whole entry, looked up): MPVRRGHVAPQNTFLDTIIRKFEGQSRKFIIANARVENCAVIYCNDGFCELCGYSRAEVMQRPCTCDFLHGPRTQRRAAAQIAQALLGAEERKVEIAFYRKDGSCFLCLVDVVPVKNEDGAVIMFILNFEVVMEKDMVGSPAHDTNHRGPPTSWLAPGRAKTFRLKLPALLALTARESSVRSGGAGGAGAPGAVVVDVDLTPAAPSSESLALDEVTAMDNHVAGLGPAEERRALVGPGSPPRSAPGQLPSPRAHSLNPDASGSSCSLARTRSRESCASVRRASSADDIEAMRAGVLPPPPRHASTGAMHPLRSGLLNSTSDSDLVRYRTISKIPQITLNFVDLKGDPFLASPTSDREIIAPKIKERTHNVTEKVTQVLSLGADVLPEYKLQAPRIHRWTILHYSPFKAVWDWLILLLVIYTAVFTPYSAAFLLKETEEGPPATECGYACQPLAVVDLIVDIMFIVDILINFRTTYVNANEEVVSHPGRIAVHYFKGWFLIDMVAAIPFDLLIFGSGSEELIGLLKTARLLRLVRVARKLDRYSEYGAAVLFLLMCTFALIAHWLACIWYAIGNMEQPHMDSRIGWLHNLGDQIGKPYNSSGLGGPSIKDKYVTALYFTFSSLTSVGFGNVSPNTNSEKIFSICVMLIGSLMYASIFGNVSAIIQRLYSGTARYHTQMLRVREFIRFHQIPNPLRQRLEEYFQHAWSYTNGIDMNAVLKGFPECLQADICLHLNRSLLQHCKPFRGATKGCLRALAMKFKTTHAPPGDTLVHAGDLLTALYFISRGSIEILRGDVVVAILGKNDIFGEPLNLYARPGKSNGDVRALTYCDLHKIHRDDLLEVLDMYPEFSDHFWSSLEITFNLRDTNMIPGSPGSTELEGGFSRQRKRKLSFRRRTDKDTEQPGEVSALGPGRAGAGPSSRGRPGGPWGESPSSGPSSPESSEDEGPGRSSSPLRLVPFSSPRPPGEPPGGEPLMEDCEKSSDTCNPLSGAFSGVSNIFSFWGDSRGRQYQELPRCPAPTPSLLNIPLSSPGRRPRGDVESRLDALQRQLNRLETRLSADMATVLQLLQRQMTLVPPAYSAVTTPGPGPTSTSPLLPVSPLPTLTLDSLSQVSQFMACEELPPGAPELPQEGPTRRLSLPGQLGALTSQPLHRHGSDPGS

| SMILES | hERG current change (%, negative = inhibition) at 10uM |
| --- | --- |
| COc1ccccc1N1CCN(Cc2ccc(OC)c3ccccc23)CC1 | -5.46% |
| COc1ccc(NC(=O)CSc2nnc(Cn3c(=O)sc4ccccc43)n2C)c(OC)c1 | -21.3% |
| COc1ccc(CNC(=O)CN2CCN(c3cccc(C)c3C)CC2)cc1 | -8.46% |
| CCC(=O)N(CC)c1nc(-c2cc(OC)ccc2OC)cs1 | 15% |
| CC(=O)Nc1ccc(NC2(C)C(=O)c3ccccc3C2=O)cc1 | 0.43% |
| Nc1nc(C23CC4CC(CC(C4)C2)C3)[nH]c(=O)n1 | 17.8% |
| Cc1cccc2cc(C(c3nnnn3C(C)(C)C)N(Cc3ccco3)CC3CCCO3)c(=O)[nH]c12 (stereo not drawn) | -33.3% |
| CC(=O)Nc1cc(-c2ccc(F)cc2)[nH]n1 | 15.5% |
| COCCNC(=O)CSc1nc2ccccc2c(=O)n1CCC(=O)NCCc1ccc(OC)c(OC)c1 | 11.8% |
| CCOC(=O)c1c(C)[nH]c(C(=O)CSc2nnc(-c3ccncc3)n2CC)c1C | -23.3% |
| c1ccc(OCc2nnc3sc(C4COc5ccccc5O4)nn23)cc1 (stereo not drawn) | 4.11% |
| c1ccc(OCc2nn3c(C4CCCCC4)nnc3s2)cc1 | -6.62% |
| Cc1cc(OCC(=O)NCc2nc(-c3ccccc3)no2)c(C)cc1Br | 15.5% |
| NC(=O)CC(NC(=O)Cc1ccc(Cl)cc1)c1ccc(NCCc2ccccc2F)c([N+](=O)[O-])c1 (stereo not drawn) | -12.5% |
| NNC(=O)COc1ccc(-c2n[nH]c(C(F)(F)F)c2-c2ccc(Br)cc2)c(O)c1 | 2.84% |
| CCN(CC)Cc1c(C(=O)N2CCc3ccccc3C2)nc2ccc(Cl)cn12 | -13.1% |
| O=C(Nc1ccccc1N1CCOCC1)c1ccc(N2CCCC2=O)cc1 | -11.8% |
| CSc1nc2sc3c(c2c(=O)[nH]1)CCCC3 | 13.9% |
| Cc1nc2c(C#N)c(-c3ccc(Cl)cc3)ccn2n1 | 2.92% |

| SMILES | hERG current change (%, negative = inhibition) at 10uM |
| --- | --- |
| Cc1ccc(N2CCCCn3c2nc2c3c(=O)[nH]c(=O)n2C)cc1 | -16.5% |
| CC(C)Oc1cccc(C(=O)N2CCCC2)c1 | 9.89% |
| CCOC(=O)c1ccc(CSc2nncn2N)o1 | 22.4% |
| O=C([O-])c1ccccc1-[n+]1c(-c2ccccc2)cc(-c2ccccc2)cc1-c1ccccc1 | -3.82% |
| CSc1ncc(C(=O)Nc2ccccc2C)c(C)n1 | 12.5% |
| COc1cccc(C2/C(=C(\O)c3ccc4c(c3)OCCO4)C(=O)C(=O)N2Cc2cccnc2)c1 (stereo not drawn) | 11.1% |
| CCc1noc(C)c1C(=O)Nc1cc(S(=O)(=O)N2CCCCC2)ccc1N(C)C | -12.9% |
| O=C(C[N+]1(CC#Cc2ccccc2)CCCCC1)c1ccccc1.[Br-] | -3.09% |
| COc1ccc(NC(=O)CSc2nc(N)c(-c3ccccc3)c(=O)[nH]2)cc1 | -0.59% |
| Cc1cc(C(=O)NCCc2ccc(Cl)cc2)c(C)o1 | 13.4% |
| Cc1nc(C#N)c(NCc2ccc3c(c2)OCO3)o1 | 12.1% |
| CSc1cccc(NC(=O)Nc2ccccc2)c1 | -4.85% |
| CN(C)/C=N/c1ncc(C(=O)c2ccc(Cl)cc2Cl)s1 | -6.27% |
| O=C(Nc1ccccc1)C1CCN(S(=O)(=O)c2ccc3c(c2)OCCO3)CC1 | 0.64% |
| COCCN(C(=O)CCC(=O)Nc1nccs1)C(C(=O)NC(C)(C)C)c1ccc(Cl)cc1 (stereo not drawn) | -5.67% |
| COc1ccccc1-c1noc(-c2ccccc2C(=O)NCc2ccco2)n1 | -23.7% |
| Nc1c(-c2ccccc2)cnn1-c1ccc(C(=O)O)cc1 | -5.89% |
| O=C(COC(=O)Cn1cc(C(F)(F)F)ccc1=O)Nc1ccccc1 | 11.9% |
| Cc1nn(Cc2ccccc2)c(C)c1C(=O)NC1CCCc2ccccc21 (stereo not drawn) | -13.4% |

| SMILES | hERG current change (%, negative = inhibition) at 10uM |
| --- | --- |
| CN1CCN(S(=O)(=O)c2ccc(Cc3ccc(S(=O)(=O)N4CCN(C)CC4)cc3)cc2)CC1 | 1.53% |
| CC(CN1C(C)CCCC1C)OC(=O)c1ccccc1Cl (stereo not drawn) | -26.8% |
| CCc1ccc(/C=N/NC(=O)c2cc(-c3cccc([N+](=O)[O-])c3)n[nH]2)cc1 | -0.299% |
| CN(c1nc2nonc2nc1NC1CC1)C1CCOC1 (stereo not drawn) | 11.3% |
| CN(Cc1c(C(=O)N/N=C/c2ccc(O)cc2)nnn1-c1nonc1N)C1CCCCC1 | 8.26% |
| O=C(CN1C(=O)C2CCCCC2C1=O)Nc1nccs1 (stereo not drawn) | 19.1% |
| CCCn1c(SCC(=O)N2CCCC(C)C2)nnc1-c1ccccn1 (stereo not drawn) | 2.2% |
| O=C(Cc1ccccc1)N1CCC(c2nc3ccccc3[nH]2)CC1 | -18.9% |
| COc1cc(NS(=O)(=O)c2cc3[nH]c(=O)c(=O)[nH]c3cc2C)cc(OC)c1OC | 0.206% |
| O=C(CC(C(=O)N1CCc2ccccc21)n1ccnc1)N1CCc2ccccc2C1 (stereo not drawn) | -49.7% |
| O=C(CCSCc1ccc(Cl)cc1)NCc1cccnc1 | -23.5% |
| NC(=S)Nc1nc2ccccc2[nH]c1=O | 9.15% |
| O=C(/C(=N\Nc1ccc([N+](=O)[O-])cc1)Sc1nnnn1-c1ccccc1)c1ccccc1 | 17.9% |
| Cc1cccc(OCCC(=O)OC(C)C(=O)Nc2ccc(Cl)cn2)c1 (stereo not drawn) | -36.7% |
| CN1CCN(CCCNC(=O)c2cc3c(=O)oc4ccccc4c3s2)CC1 | -14.2% |
| CCOc1ccc2noc3c2c1C(=O)c1ccccc1-3 | 11.3% |
| COCCCN1CC(=O)N2C(c3cccc(OC)c3)c3[nH]c4ccccc4c3C[C@H]2C1=O (stereo partly drawn) | -14.3% |
| Cn1ncc(Br)c1C(=O)N1CCOCC1 | -17.1% |
| N#C/C(=C(/O)c1cccs1)c1nnc2n1CCCCC2 | 4.49% |
